From paper PMC4336329 (PLoS ONE, 2015)
The campaign covered roughly 310,000 compounds. About 2,200 (0.71%) showed an effect of 50% or more. The effect is printed as a negative number. Some of the results follow.

What follows are compounds tested against human ether-à-go-go-related gene (hERG) potassium channel (human, UniProt Q12809) (assay: primary screen, population patch clamp on CHO cells stably expressing hERG).
Experimental: Briefly, Chinese hamster ovary (CHO) cells stably expressing the hERG channel were dislodged from tissue culture flasks and dispensed into PPC plates. […] During the recording, background leak currents were estimated by a 100 ms step to -80 mV from an initial holding potential of -70 mV and subtracted from the subsequent current measurement. The campaign was conducted in two phases using slight differences in recording protocol. In the first phase, the initial voltage pulse used a 100 ms step to -30 mV from a holding potential of -70 mV, a 2 s conditioning step to +25 mV, and a 2 s test step to -30 mV. During the second phase of the screen, the potential during the conditioning step was raised to +45 mV. In both phases of the campaign, a secondary voltage pulse was applied using the same parameters as the second phase initial pulse. The initial and secondary pulses were applied in the absence of compound, and upon application of 1 μM and 10 μM test concentrations. Small molecule effects on hERG current density were quantified by […].

Chain of human ether-à-go-go-related gene (hERG) potassium channel (Q12809 whole entry, looked up): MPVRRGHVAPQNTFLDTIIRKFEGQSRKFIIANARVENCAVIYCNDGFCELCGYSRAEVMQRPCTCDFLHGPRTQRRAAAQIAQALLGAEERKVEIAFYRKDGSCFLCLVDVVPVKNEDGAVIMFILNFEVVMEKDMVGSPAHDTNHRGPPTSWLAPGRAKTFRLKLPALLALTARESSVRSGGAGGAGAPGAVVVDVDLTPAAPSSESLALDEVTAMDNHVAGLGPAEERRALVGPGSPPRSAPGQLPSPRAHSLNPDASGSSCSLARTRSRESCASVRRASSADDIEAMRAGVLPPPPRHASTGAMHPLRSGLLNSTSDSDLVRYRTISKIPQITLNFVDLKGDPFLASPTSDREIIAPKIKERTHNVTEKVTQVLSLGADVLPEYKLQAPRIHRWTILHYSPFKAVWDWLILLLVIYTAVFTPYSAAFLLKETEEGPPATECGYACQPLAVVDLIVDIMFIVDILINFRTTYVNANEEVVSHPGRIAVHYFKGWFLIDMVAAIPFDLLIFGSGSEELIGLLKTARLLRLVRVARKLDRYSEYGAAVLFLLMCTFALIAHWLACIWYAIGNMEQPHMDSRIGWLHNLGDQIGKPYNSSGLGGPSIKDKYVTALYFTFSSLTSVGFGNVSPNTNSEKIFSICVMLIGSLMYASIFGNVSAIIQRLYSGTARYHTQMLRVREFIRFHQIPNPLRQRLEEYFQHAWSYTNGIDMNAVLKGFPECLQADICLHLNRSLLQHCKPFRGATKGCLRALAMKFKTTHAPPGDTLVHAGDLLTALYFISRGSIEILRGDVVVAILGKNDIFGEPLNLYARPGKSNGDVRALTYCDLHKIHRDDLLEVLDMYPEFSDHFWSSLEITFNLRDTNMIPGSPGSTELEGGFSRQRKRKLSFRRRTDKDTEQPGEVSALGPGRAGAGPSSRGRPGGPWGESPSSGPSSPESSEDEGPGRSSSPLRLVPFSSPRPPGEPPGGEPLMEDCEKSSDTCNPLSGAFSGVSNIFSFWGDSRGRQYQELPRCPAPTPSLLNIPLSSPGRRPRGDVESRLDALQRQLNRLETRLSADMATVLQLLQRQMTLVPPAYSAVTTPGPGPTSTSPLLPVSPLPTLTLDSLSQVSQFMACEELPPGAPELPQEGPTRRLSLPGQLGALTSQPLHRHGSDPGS

Row | SMILES | hERG current change (%, negative = inhibition) at 1uM [%]
1 | Cc1cc(C(F)(F)F)nn1CC(=O)NNC(=S)Nc1cccc(Cl)c1 | 13.6
2 | O=[N+]([O-])c1cc(Cl)ccc1Sc1cccc2cccnc12 | 12.2
3 | O=C(COc1ccccc1[N+](=O)[O-])NCCC1=CCCCC1 | 12
4 | Cc1cc2n(n1)C(c1ccsc1)Nc1ccccc1-2 (centres unmarked) | -10.9
5 | CCN(CC)c1nc2cc(OC)ccc2cc1C#N | 6.59
6 | COc1ccc(S(=O)(=O)N2CC(=O)Nc3ccccc32)cc1Cl | 14.5
7 | COc1ccc(C=O)cc1OS(=O)(=O)c1ccccc1[N+](=O)[O-] | 9.7
8 | C=CCn1c(SCC(=O)Nc2ccc(NC(C)=O)cc2)nc2sc(C)c(C)c2c1=O | 10.6
9 | CCOC(=O)c1ccccc1NC(=O)Cn1cnc2c(cnn2-c2ccccc2)c1=O | -2.5
10 | COc1ccc(C)cc1S(=O)(=O)Nc1cccc(SC)c1 | 4.83
11 | CC(CC(=O)Nc1ccc(F)cc1)S(=O)(=O)c1ccc2c(c1)NC(=O)CO2 (centres unmarked) | 13.4
12 | Cn1cc(C(=O)NCCO)c(=O)c2ccccc21 | 3.93
13 | O=C(O)c1ccc(COc2ccccc2C=C2C(=O)c3ccccc3C2=O)cc1 | 12.8
14 | CCOc1ccc(N(C(C)C(=O)N2CCOCC2)S(C)(=O)=O)cc1 (centres unmarked) | 10.8
15 | COc1cccc(C2C(C#N)=C(N)Oc3cc(C)n(Cc4ccccn4)c(=O)c32)c1OC (centres unmarked) | -1.52
16 | Cc1ccc(CNC(=O)c2nc3nc(C)cc(C)n3n2)cc1 | 20.5
17 | CCOC(=O)c1c(NC(=O)CSc2nnc(Cc3csc(N)n3)n2C)sc(C)c1C | 9.13
18 | O=S(=O)(c1ccc(Cl)cc1)N(Cc1ccccn1)Cc1ccccn1 | 8.39
19 | COc1ccc(/C=N/NC(=O)c2ccc(Cl)cc2)cc1Cn1cc(Cl)cn1 | 12
20 | Cc1nc(C)c(C(=O)Nc2cccc(F)c2)s1 | 13.9
21 | O=C(CN1C(=O)C2CC=CCC2C1=O)NC1CCCCC1 (centres unmarked) | 15.9
22 | CCCCc1ccc(NC(=O)CSc2nnc(C)c(=O)n2N)cc1 | 7.02

Row | SMILES | hERG current change (%, negative = inhibition) at 1uM [%]
23 | O=C(NC(NCc1ccccc1)C(Cl)(Cl)Cl)c1cccnc1 (centres unmarked) | 12.2
24 | CC(=O)N1CCC(C(=O)NC2CC(C)(C)Cc3c2cnn3-c2ccc(F)cc2)CC1 (centres unmarked) | -11.3
25 | O=C(c1ccc(N2CC3CC(C2)c2cccc(=O)n2C3)c([N+](=O)[O-])c1)N1CCCCC1 (centres unmarked) | -8.5
26 | CN(Cc1ccc(F)cc1)C(=O)c1cccc(S(=O)(=O)N2CCN(Cc3ccccc3)CC2)c1 | 5.98
27 | COc1cccc(-n2nnnc2SCC(=O)N2CCCc3ccccc32)c1 | 12.1
28 | NS(=O)(=O)c1ccc(CCNc2ncnc3c2c(-c2ccccc2)cn3-c2ccc(F)cc2)cc1 | 14.4
29 | CN(C)C(=O)c1ccc(NC(=O)COC(=O)CC23CC4CC(CC(Br)(C4)C2)C3)cc1 | 6.61
30 | CCC1(C(=O)c2ccc(Cl)cc2)C2c3ccccc3OC(=O)C21C(=O)Nc1ccccc1 (centres unmarked) | 5.58
31 | O=C(Cn1nnc(-c2ccccc2)n1)N/N=C/c1cccc([N+](=O)[O-])c1 | 2.73
32 | N#C/C(=C\c1ccc(-c2ccc([N+](=O)[O-])cc2)o1)C(=O)Nc1nc(-c2cccs2)cs1 | 9.95
33 | Nc1nc(Cl)cc(Sc2ccc(F)cc2)n1 | 5.47
34 | COc1ccc(CCNc2ccc(N3C(=O)CC(C)C3=O)cc2[N+](=O)[O-])cc1 (centres unmarked) | 10.5
35 | Cn1cnnc1SCC(=O)n1c2ccccc2c2ccccc21 | 14
36 | c1ccc(-c2ccc(-n3ccnc3)cc2)cc1 | 4.72
37 | CCn1c(CNc2ccc(Cl)cc2)nnc1SCC#N | 13.6
38 | CCCCn1c(C)c(C(=O)O)c2cc(OC)ccc21 | 7.97
39 | COc1ccccc1N=Nc1c(C)noc1C | 6.79
40 | CC(=O)Nc1ccc(SCC(=O)c2cc(C)n(CC(F)(F)F)c2C)cc1 | 12.2
41 | C/C(N)=C(/C#N)C(=O)CSc1nnc(Nc2cccc(C)c2C)s1 | 9.7
42 | COc1ccc(S(=O)(=O)N(Cc2cc3ccc(OC)cc3[nH]c2=O)CC2COCCO2)cc1 (centres unmarked) | -13.9
43 | COc1ccc(OC)c(S(=O)(=O)NC2CC(=O)N(c3cccc(F)c3)C2)c1 (centres unmarked) | 8.91
44 | CNC(=O)C(=O)Nc1ccc2c(c1)N(S(=O)(=O)c1cccs1)CCC2 | -4.69
